Experimental data taken from publication PMC12529666.
The entries are a selection whose mix differs from that of the whole data set. At the low end of the ranking the order means little. The list shows a part of the results.

Key:
[1] = molecular target: AGO2 WT (phosphosite mutant background) S387D + S824A + S828D + S831D + S834A (UniProt Q9UKV8); experiment: RNA Bind-n-Seq (nitrocellulose filter binding and sequencing); details: constant regions annealed to DNA blockers; guide miR-122 5' phosphate; 30 mM Tris pH 8.0, 100 mM potassium acetate, 2 mM magnesium acetate, 0.5 mM TCEP, 0.005% NP-40, 0.01 mg/ml yeast tRNA; 3 nM AGO2-miR-122, 100 nM RNA library …; high values mean tight binding
[2] = molecular target: AGO2 F182del S387D + S824A + S828D + S831D + S834A + del182-182 (UniProt Q9UKV8); experiment: as above; details: constant regions annealed to DNA blockers; guide miR-122 5' phosphate; 30 mM Tris pH 8.0, 100 mM potassium acetate, 2 mM magnesium acetate, 0.5 mM TCEP, 0.005% NP-40, 0.01 mg/ml yeast tRNA; 3 nM AGO2-miR-122, 100 nM RNA library …; high values mean tight binding

| Sequence | binding signal (fold enrichment over input) [1] | binding signal (fold enrichment over input) [2] |
| --- | --- | --- |
| GAGUUCUACAGUCCGACGAUCCCAACGCGCCUUACACCUGGAAUUCUCGGGUGCCAA / UGGAGUGUGACAAUGGUGUUUG / GATCGTCGGACTGTAGAACTC / TTGGCACCCGAGAATTCCA | 0.125 | 0.0863 |
| GAGUUCUACAGUCCGACGAUCCCAACAUACCCCACACCUGGAAUUCUCGGGUGCCAA / UGGAGUGUGACAAUGGUGUUUG / GATCGTCGGACTGTAGAACTC / TTGGCACCCGAGAATTCCA | 0.102 | 0.199 |
| GAGUUCUACAGUCCGACGAUCCCAACGUAUUUUGCACCUGGAAUUCUCGGGUGCCAA / UGGAGUGUGACAAUGGUGUUUG / GATCGTCGGACTGTAGAACTC / TTGGCACCCGAGAATTCCA | 0.0918 | 0.0411 |
| GAGUUCUACAGUCCGACGAUCCCAACACGCCUCACACCUGGAAUUCUCGGGUGCCAA / UGGAGUGUGACAAUGGUGUUUG / GATCGTCGGACTGTAGAACTC / TTGGCACCCGAGAATTCCA | 0.15 | 0.822 |
| GAGUUCUACAGUCCGACGAUCCCAACACGUCCCGCACCUGGAAUUCUCGGGUGCCAA / UGGAGUGUGACAAUGGUGUUUG / GATCGTCGGACTGTAGAACTC / TTGGCACCCGAGAATTCCA | 0.0874 | 0.0758 |
| GAGUUCUACAGUCCGACGAUCCCAACACACUCCACACCUGGAAUUCUCGGGUGCCAA / UGGAGUGUGACAAUGGUGUUUG / GATCGTCGGACTGTAGAACTC / TTGGCACCCGAGAATTCCA |  | 116 |
| GAGUUCUACAGUCCGACGAUCCCAACGUACCUUGCACCUGGAAUUCUCGGGUGCCAA / UGGAGUGUGACAAUGGUGUUUG / GATCGTCGGACTGTAGAACTC / TTGGCACCCGAGAATTCCA | 0.0913 | 0.0432 |
| GAGUUCUACAGUCCGACGAUCCCAACACGCUCUACACCUGGAAUUCUCGGGUGCCAA / UGGAGUGUGACAAUGGUGUUUG / GATCGTCGGACTGTAGAACTC / TTGGCACCCGAGAATTCCA | 0.111 | 0.112 |
